± gives the standard deviation of the averaged measurements. Some of the results follow.
Tested on: PfAP2-G AP2 domain (GST-tagged)
Assay: gcPBM binding intensity (ln(normalized median fluorescence intensity)); higher = stronger DNA binding
Outline: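 Probes on an Agilent 4 × 180k array were primer-extended, double-stranded and 36 bp long, taken from intergenic genomic regions, with negative controls added. GST-tagged P. falciparum DNA-binding domains from E. coli, about 25 μg on average, were applied to the array for 1 h in 1× PBS containing 1% milk, 0.2 mg/ml BSA, 0.5% salmon testes DNA and 0.03% Triton X-100. Binding intensity, obtained after Alexa488 anti-GST antibody detection and a 488 nm scan, is the highest Masliner-normalised natural-log median intensity across replicate spots of either probe orientation.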

Row | Sequence | gcPBM binding intensity (ln)
1 | ATATTAAGGTTTATATTTTAACTTATTATTTTATTC [CACACA_negctrl_site795] | 9.55 ± 0.15
2 | GTAAAAAGATAATGAAGTACATTTTTTCATTTTTAT [XGTACX_site5579] | 11.1 ± 0.79
3 | AAAAAAAAAAAACACACACACACACCCATATACATA [CACACA_site2664] | 10.2 ± 0.16
4 | CATATCCTTACGAACTGTACAATATTAAGAATAAAA [XGTACX_site1651] | 10.9 ± 0.41
5 | ATATATTCAATTCATACACACACAATTTAAGAATGA [CACACA_site9289] | 10 ± 0.11
6 | ATTTATTTTTTTATCACACATTTGTGAAATGTGCAT [CACACA_site5869] | 9.93 ± 0.13
7 | GTCTATAACTATTGCGCACACTTTAAAAAAAAAGAA [CACACA_site1003] | 10.7 ± 0.6
8 | TAGAAGCATTGACACACACACATACATACACATACA [CACACA_site6802] | 10.2 ± 0.26
9 | TATATATATATATAATGTACATAATAATAATACATC [XGTACX_site5587] | 11 ± 0.59
10 | CTAGACTTTATTAATTGTACATATGTGTATTTTATA [XGTACX_site480] | 10.9 ± 0.61
11 | AATACAGACAGACACACACACAAAATAAAATACAAA [CACACA_site245] | 10.2 ± 0.38
12 | TCTTTTTTTTGAATTTGTACATAAGACAATAAAAAA [XGTACX_site4682] | 10.9 ± 0.59
13 | CATCATAGAGTGGAGTGTACAAATATGTCAACATAT [XGTACX_site2264] | 10.9 ± 0.42
14 | TTTTCCTTTACATAATGTACACAAAAAAAAAAAAAA [XGTACX_site716] | 11.3 ± 0.97
15 | GTTACTGCATACATAACACACATATTCAAAACCCAT [CACACA_site5856] | 10.12 ± 0.042
16 | TTTACACCCTAAAAATGTACAAGAAAGATTATATTA [XGTACX_site1102] | 10.8 ± 0.48
17 | ATACTAAAGAAACACACACACATATATATATAGAAT [CACACA_site100] | 9.955 ± 0.064
18 | AAAGCTTACATATACACACATACATAAATTCATAAA [CACACA_site2469] | 9.94 ± 0.12
19 | TTTTTTTATTATACTAGTACATATATATACAGCACA [XGTACX_site3464] | 11.1 ± 0.8
20 | AAAAAAAAAAAAGGAACACACAAGTAACAATAAATT [CACACA_site2481] | 10.2 ± 0.13
21 | ATTTTTTTCCTAATGGTGCGAATAAATATCCATACC | 10.2 ± 0.18
22 | TTAACAGTAAAACACAGTACATATATACTTAAAACA [XGTACX_site1930] | 10.7 ± 0.47
23 | TAATCTCATAAAACCGCACACACATAAAATTTGCAT [CACACA_site3890] | 10 ± 0.042

Row | Sequence | gcPBM binding intensity (ln)
24 | TTTTTAATAATCTCTCAAAATGTTCTTATATTTTAC [CACACA_negctrl_site1691] | 9.74 ± 0.13
25 | TTGTTTGATATCTTTGTCACGAAAAAAATATATATA [GTGCAC_negctrl_site54] | 10.1 ± 0.21
26 | TAAGGATAAAATAAATGTACATATGTAAAATTATTA [XGTACX_site4170] | 10.9 ± 0.58
27 | GAGAAATGGGGACACACACACATATTATAGATATAT [CACACA_site6829] | 11.5 ± 0.83
28 | TAAGAAAAAAGTAAATGTACAGAGAAAATTATCTAT [XGTACX_site7374] | 10.8 ± 0.47
29 | ATTTATTACAAATGAATGCACTATATCTTAATTTTG | 9.88 ± 0.014
30 | ATATATTTCCTGAGGAGTACTATGAAAGACAAAAAA [XGTACX_site5628] | 11.4 ± 0.87
31 | ATAATTTTGATTATCACACATATATATATATATATG [CACACA_site5882] | 10.04 ± 0.085
32 | TAATTTAATAATTAGACACACATGTGGAAAATAAAA [CACACA_site5401] | 10.3 ± 0.16
33 | TTTGTCATTTTATTATGTACTCAGCATATAGGGGGG [XGTACX_site505] | 11.7 ± 0.66
34 | GATTTTTAAAATATCACACATAAAAAAAAAAAAAAA [CACACA_site5516] | 9.88 ± 0.71
35 | AAAAAAATTCTGACTTGTACATATAAAATTTACAAA [XGTACX_site4408] | 11 ± 0.84
36 | ACATATATATAAAGGTGTACACATATATATATATAT [XGTACX_site4779] | 11.7 ± 0.76
37 | TTCCTACTATTCAAACGTACAAAATATTTAAATAAT [XGTACX_site700] | 11.1 ± 0.74
38 | AAAACAAATGCTTAAAGTACTTATTATTTTTCTTTT [XGTACX_site6324] | 11.3 ± 0.52
39 | TATTTCTTATTTATTTTTTAAGGAAATTAAAGATTT [CACACA_negctrl_site258] | 9.77 ± 0.085
40 | CAAAATAAAAAATTCACACACATATATATATATATA [CACACA_site2088] | 10.1 ± 0.59
41 | TATTATAAAACATTATGTACATATTCTGAAAAATAG [XGTACX_site6577] | 11.3 ± 0.61
42 | ATAATATAATATAAAACACACATATGTACCTTCTAA [CACACA_site2761] | 10.9 ± 0.57
43 | CAAGTTCAAAATACAAGGAAGAAACAAAACTTGGCG [GTGCAC_negctrl_site600] | 10.13 ± 0.042
44 | AAAAAAAAAAAAAAAAGTACAAATCTTTATTTATTA [XGTACX_site3305] | 11.2 ± 0.6
45 | TAAAAATATCTGTATACACACATATATATATATATA [CACACA_site6042] | 10.2 ± 0.4
46 | ATATAAATCATTGGTTGTACATATAATATTTTATAA [XGTACX_site925] | 11.2 ± 0.76

Row | Sequence | gcPBM binding intensity (ln)
47 | TATTTTTACCCATAAAGTACACATAAATATAAAATA [XGTACX_site177] | 11.5 ± 1
48 | TATATATCTATATATTGTACATATGTTTGTATGTGT [XGTACX_site7420] | 10.9 ± 0.57
49 | TATATATTAGAAGATAGTACATATATATTTATTAAT [XGTACX_site1011] | 10.7 ± 0.36
50 | GCTCAATGTTTTACATGTACATATATATATATATAT [XGTACX_site8210] | 11 ± 0.57
51 | TGGTGATCAAAATATACATGCATATGTTCTGTTATT [TGCATGCA_site614] | 9.73 ± 0.13
52 | TTAATATAACTTTTTGCACACTTAATTTTTTTTTTT [CACACA_site3364] | 9.925 ± 0.078
53 | TTATATAAAACATTAACACACAAAGAAAAAAAATTA [CACACA_site1793] | 10 ± 0.042
54 | TATGATATCTATAATACACACATATACATAAGATCT [CACACA_site6652] | 10
55 | CAGAAATATTAATGCTGTACGGAATACATATATTTT [XGTACX_site539] | 10.9 ± 0.6
56 | ATTTTAATGGGACATGCATGGGACAAACTACAAATT [TGCATGCA_site853] | 10.6 ± 0.24
57 | AGAATATTTATATGATGTACTTATATATATATATAT [XGTACX_site3021] | 11.2 ± 0.71
58 | TATATATTAAAACACACACACATATATATATATATA [CACACA_site3787] | 9.98 ± 0.23
59 | TGAACCAGATTTAGAAGTACTAAATATTACATACAT [XGTACX_site2437] | 11 ± 0.67
60 | TGTTGCAAAACAAAAAAAAAAAAAAAAAATAATAAT [CACACA_negctrl_site1642] | 9.64 ± 0.19
61 | AATAAAAACTACATGTGTACATAATAAATACATATA [XGTACX_site755] | 11.3 ± 0.94
62 | TTTTTTCTTTTCTTTTTATTTTATTTTGTTTTATTT [CACACA_negctrl_site799] | 9.71 ± 0.11
63 | TAAAAATATTTAAACTGTACTATTTTATGTTAAATG [XGTACX_site6620] | 11.3 ± 0.8
64 | ATAATCCAAAAAAATCAAATAAAATAAAATAAAATA [CACACA_negctrl_site449] | 9.415 ± 0.078
65 | TTTATAATTTTAAAATGTACAAGGAGGAAAAATTCT [XGTACX_site422] | 10.9 ± 0.63
66 | TATATAAATATTCGTAGTACAATACAATTATAAGTA [XGTACX_site3068] | 11.2 ± 0.88
67 | TTATATTTTATATTTACACACATTTATATTTATAAA [CACACA_site203] | 9.86 ± 0.085
68 | CAAATGGTAAATGAAAGTACAAATTGTTTTGATTAA [XGTACX_site1536] | 10.8 ± 0.4
69 | ATATACATATTCTTGTGTACATAAAAATTTATATAT [XGTACX_site8726] | 11.4 ± 0.73

Row | Sequence | gcPBM binding intensity (ln)
70 | AATTTGTAAAATAAGGTGCGTATAAAAAATTATATT [GTGCAC_site9676] | 10.29 ± 0.057
71 | ATAAACATCGGTAGTACACACATTCATGTACTTGAT [CACACA_site3037] | 11.8 ± 1
72 | ATTTAATAAAAAAAAAAAATATTGTAGAATATGATG [GTGCAC_negctrl_site195] | 9.735 ± 0.021
73 | ATTCGATGTTTTAAATGTACACAAATTGAAGGAATA [XGTACX_site409] | 11.5 ± 0.86
74 | ATGTTTTCTCTTTCGGTGCATTGTTTTCTATACTTT [GTGCAC_site9483] | 10.1 ± 0.17
75 | TATATATTTTTTTCAAGTACACATTACAGTTACATA [XGTACX_site2713] | 11.4 ± 1
76 | TTCTTCACATACACTTCAAAATTTGATAAAACATTA [CACACA_negctrl_site472] | 10.2 ± 0.31
77 | TAATAAATAAGATTCACACATATTTAAATGTTATGC [CACACA_site5275] | 9.52 ± 0.23
78 | TATCTATAATATTATACACACATATATGCATAATAT [CACACA_site6175] | 10.04 ± 0.092
79 | TTATTTGAATAATGTTTGCACTTAGAGTATTTTATA | 9.99 ± 0.23
80 | ATATATCATAAATAAATGAAAATATTTTCTATGTGT [CACACA_negctrl_site689] | 9.88 ± 0.15
81 | TTTTCTTACATGAGTGTACACACTTTTTTTCAGAAA [CACACA_site70] | 11.6 ± 0.91
82 | TTTATATAATTTTAATGTACATATATATATATAAAT [XGTACX_site4381] | 11.2 ± 0.74
83 | ATGAATTGACCATATTGTACATATTTAGGACTTACC [XGTACX_site8072] | 11.3 ± 0.63
84 | AAATATATGAAATATACACACTTCTTTGGTATTATT [CACACA_site4414] | 9.8 ± 0.27
85 | GTATATAATTTTTTTTTTTTTTTCATTCTTTTCCTT [CACACA_negctrl_site1780] | 9.53 ± 0.042
86 | ATTAAAAATATTAGTTGTACTTTATATTTTCATATA [XGTACX_site3614] | 11.3 ± 1.1
87 | ATATATATATAGTGTTGTACATTTAAAAATAATATA [XGTACX_site2627] | 11.2 ± 0.78
88 | TAGAAGTACATATATGCATGTTAATTTTAAAGGAGG [TGCATGCA_site538] | 11.3 ± 0.95
89 | AAATTCCATGAAAAAAGTACTAATTAATACAATATA [XGTACX_site2877] | 11.2 ± 0.67
